Source: patent US20220031700A1, “Treatment of Acute Respiratory Distress Syndrome (ARDS)” (priority 2020, published 2022)

What was measured:
[1] = test system: Influenza virus A/PR/8/34 H1N1; assay: Survival rate in experimental influenza model; settings: influenza 7.5 Lg EID50 IN; 100 mg/kg IP QD 10 days; vehicle-treated group 50%
[2] = test system: Influenza virus A/PR/8/34 H1N1; assay: Daily body weight in experimental influenza model; settings: influenza 7.5 Lg EID50 IN; 100 mg/kg IP QD 10 days; compared to Influenza/Vehicle treated animals
[3] = test system: Influenza virus A/PR/8/34 H1N1; assay: Lung Wet/Dry ratio assay in experimental influenza model; settings: influenza 6.5 Lg EID50 IN; 100 mg/kg IP QD 7 days; Day 7; compared to influenza-infected/vehicle-treated control

Cc1cccc(Oc2cnc(=O)[nH]c2)c1 [MLR-1023, tolimidone]
overall survival rate (animals survived) [1]: 87.5%
body weight [2]: did not produce a significant effect
wet weight/dry weight ratio (pulmonary edema) [3]: significantly reduced
